# B1: 6.30-FuG1: spike-RBD targeting antibody 6.30 converted into FuG1; SEQ ID NOs: 20 and 27 (protein)
# light: DIQMTQSPSSLSASVGDRVTITCRASQNISSYLNWYQQEAGKAPKLLIYAASSLQSGVPSRFSGSGSGTDFTLTISSLQPEDFATYYCQQSYSTPRTFGQGTKVDIKRTVAAPSVFIFPPSDEQLKSGTASVVCLLNNFYPREAKVQWKVDNALQSGNSQESVTEQDSKDSTYSLSSTLTLSKADYEKHKVYACEVTHQGLSSPVTKSFNRGEC
# heavy: QVQLVQSGAEVKKPGSSVKVSCKASGGTFSIYAITWVRQAPGQGLEWMGGIIPIIGTANYAQKFQGRVTITADKSTSTAYMELSSLRSEDTAVYYCARDFRYCSSTRCYFWFDPWGQGTLVTVSSASTKGPSVFPLAPSSKSTSGGTAALGCLVKDYFPEPVTVSWNSGALTSGVHTFPAVLQSSGLYSLSSVVTVPSSSLGTQTYICNVNHKPSNTKVDKKVEPKSCDKTHTCPPCPAPEAAGGPSVFLFPPKPKDTLMISRTPEVTCVVVDVSHEDPEVKFNWYVDGVEVHNAKTKPREEQYNSTYRVVSVLTVLHQDWLNGKEYKCKVSNKALPAPIEKTISKAKGQPREPQVYTLPPSREEMTKNQVSLTCLVKGFYPSDIAVEWESNGQPENNYKTTPPVLDSDGSFFLYSKLTVDKSRWQQGNVFSCSVMHEALHNHYTQKSLSLSLGKEGGGSGRERKARGGCPGS
# Biological target: S0 spike (and furin)+)
molecule,measurement,value
B1,pull-down of S0 spike and furin,pull-down detectable S0 spike (and furin) selectively from spike transfected HEK-293 cells
